In the supplement of paper PMC3334620:
Over roughly 33,000 sequences, “E-score (-0.5 to 0.5)” has its median near -0.012; the highest 2% begin near 0.29. The list shows a part of the results.

target: T1, Ybr033w (UniProt P38073); experiment: PBM E-score (8-mer binding enrichment) (E-score (-0.5 to 0.5)); higher = stronger / more preferred TF binding; most listed sequences are background and not binding sites; details: protein concentration: 200 nM; construct: GST-full length
T1 sequence: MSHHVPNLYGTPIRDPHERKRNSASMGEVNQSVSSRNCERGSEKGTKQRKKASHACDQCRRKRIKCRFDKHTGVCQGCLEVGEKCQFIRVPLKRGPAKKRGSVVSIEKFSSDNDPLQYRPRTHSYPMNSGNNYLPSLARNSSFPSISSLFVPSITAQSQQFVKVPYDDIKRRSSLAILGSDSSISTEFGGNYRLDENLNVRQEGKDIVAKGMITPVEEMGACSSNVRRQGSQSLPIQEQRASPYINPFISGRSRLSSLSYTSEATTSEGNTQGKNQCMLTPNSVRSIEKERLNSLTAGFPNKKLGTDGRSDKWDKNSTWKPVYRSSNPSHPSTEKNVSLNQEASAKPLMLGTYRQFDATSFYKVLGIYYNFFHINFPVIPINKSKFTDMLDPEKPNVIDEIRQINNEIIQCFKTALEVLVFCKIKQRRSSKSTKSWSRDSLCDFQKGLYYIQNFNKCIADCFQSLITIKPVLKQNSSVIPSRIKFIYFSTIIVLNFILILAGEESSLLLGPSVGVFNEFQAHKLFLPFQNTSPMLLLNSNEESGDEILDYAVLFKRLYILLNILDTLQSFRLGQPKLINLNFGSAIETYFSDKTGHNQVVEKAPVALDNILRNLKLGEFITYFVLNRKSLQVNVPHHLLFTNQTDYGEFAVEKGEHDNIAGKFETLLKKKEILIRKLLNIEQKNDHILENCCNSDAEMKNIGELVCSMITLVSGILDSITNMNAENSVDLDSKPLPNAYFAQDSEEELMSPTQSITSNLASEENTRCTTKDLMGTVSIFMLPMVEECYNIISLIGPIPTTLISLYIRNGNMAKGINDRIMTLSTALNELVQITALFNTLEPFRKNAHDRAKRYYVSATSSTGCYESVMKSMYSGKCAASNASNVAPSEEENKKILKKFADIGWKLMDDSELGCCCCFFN
How it was run: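 E-scores (a modified Wilcoxon-Mann-Whitney statistic) were assigned by the Universal PBM Analysis Suite to every ungapped eight-base word pooled with its reverse complement. The input came from universal all-10-mer Agilent arrays made double-stranded by primer extension and probed with GST-tagged yeast transcription factors at about 100-200 nM. Fluorescent anti-GST detected bound protein, and masliner normalised the scans.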

Sequence | PBM E-score
ACGTCCTC | -0.115
AGATACGC | 0.00893
CAAAATAA | 0.206
ATTCTACC | 0.159
GATGACCA | -0.0393
ATCTGAGA | 0.0954
CACATATC | 0.168
AGGAATGG | -0.0847
GATCATAC | -0.0221
AGACTTCC | -0.183
CGACCTAG | 0.101
AATACACC | 0.249
ATAACGTC | 0.0825
GCGCTTCC | -0.209
GCTTGAAA | 0.0485
TCGCTTCA | -0.00325
GCCCCAAA | -0.253
GGCAGACA | 0.0552
CTTTGTCA | 0.0476
ACCGCAAG | -0.147
CTCAGCCC | -0.27
AAGGCGGG | -0.365

Sequence | PBM E-score
GTCGCTCA | 0.00026
TCCATCCA | 0.0115
ACGATGTG | 0.01
TCCTTCAA | -0.0281
CATTCTCC | 0.0353
AGCTACGA | -0.183
ACGCGTCG | 0.0695
CGATTTTC | 0.159
CGCGTGTA | -0.0195
TCTGTACA | 0.149
CCTAGTCC | -0.172
AGATCTGA | -0.108
ACGTAAAG | 0.0286
CCTCTGCG | -0.252
AGTATTGA | 0.198
AAACGACA | 0.193
GATTGCAC | 0.0667
CGAATTGA | 0.096
AAGGAACT | 0.032
ACATATAG | 0.115
TGTGAAAA | 0.0945
CTCCACCC | -0.314

Sequence | PBM E-score
GATAGATA | 0.212
GATCAGGA | -0.0416
ACAGGACT | -0.072
AAGATGGT | 0.126
AGGGGTAA | -0.272
AACCGGGG | -0.135
AACACCGG | 0.0134
CGAGGCGC | -0.0647
GACGCGCA | 0.0817
AATGACGC | -0.0537
TATCATAA | 0.134
CGAACCGC | -0.157
CGACGCGC | 0.029
ATCGAGAG | -0.0389
AGTGAGCA | -0.0682
AGAGCGTA | -0.149
CTTGTGCA | -0.00671
ACCCTACC | -0.0594
TACGATGA | 0.137
CTCTGGGC | -0.179
GCCTTAAC | -0.0834
CCTGTAGC | -0.353

Sequence | PBM E-score
TGGACAAA | 0.152
CCACTGAC | -0.302
GATATCAC | -0.00392
CGTTGCAC | -0.0321
AATTCGAC | -0.202
ACAGTTCG | 0.0358
CGCACCGA | -0.217
CCGTTTCG | -0.0141
GACTAGTA | 0.0157
ACCCCCCG | -0.375
ACTATTTC | 0.237
CGAAGGAC | -0.138
ACAAGCTC | -0.0954
CACTGTCG | -0.137
GGCCAGCC | -0.29
GGACTGAC | -0.286
ATCTCCAT | -0.0565
AATTTGAG | 0.121
AATCAGAA | 0.168
TTTGAAAA | 0.263
